# Assay results from paper PMC4336329 (PLoS ONE, 2015).
# Among all 310,000 compounds or so, about 2,200 (0.71%) showed an effect of 50% or more. Effects have a minus sign here. The list shows a part of the results.
# Target: human ether-à-go-go-related gene (hERG) potassium channel (human, UniProt Q12809)
# Assay: primary screen, population patch clamp on CHO cells stably expressing hERG
# Sequence of human ether-à-go-go-related gene (hERG) potassium channel (Q12809 whole entry, looked up): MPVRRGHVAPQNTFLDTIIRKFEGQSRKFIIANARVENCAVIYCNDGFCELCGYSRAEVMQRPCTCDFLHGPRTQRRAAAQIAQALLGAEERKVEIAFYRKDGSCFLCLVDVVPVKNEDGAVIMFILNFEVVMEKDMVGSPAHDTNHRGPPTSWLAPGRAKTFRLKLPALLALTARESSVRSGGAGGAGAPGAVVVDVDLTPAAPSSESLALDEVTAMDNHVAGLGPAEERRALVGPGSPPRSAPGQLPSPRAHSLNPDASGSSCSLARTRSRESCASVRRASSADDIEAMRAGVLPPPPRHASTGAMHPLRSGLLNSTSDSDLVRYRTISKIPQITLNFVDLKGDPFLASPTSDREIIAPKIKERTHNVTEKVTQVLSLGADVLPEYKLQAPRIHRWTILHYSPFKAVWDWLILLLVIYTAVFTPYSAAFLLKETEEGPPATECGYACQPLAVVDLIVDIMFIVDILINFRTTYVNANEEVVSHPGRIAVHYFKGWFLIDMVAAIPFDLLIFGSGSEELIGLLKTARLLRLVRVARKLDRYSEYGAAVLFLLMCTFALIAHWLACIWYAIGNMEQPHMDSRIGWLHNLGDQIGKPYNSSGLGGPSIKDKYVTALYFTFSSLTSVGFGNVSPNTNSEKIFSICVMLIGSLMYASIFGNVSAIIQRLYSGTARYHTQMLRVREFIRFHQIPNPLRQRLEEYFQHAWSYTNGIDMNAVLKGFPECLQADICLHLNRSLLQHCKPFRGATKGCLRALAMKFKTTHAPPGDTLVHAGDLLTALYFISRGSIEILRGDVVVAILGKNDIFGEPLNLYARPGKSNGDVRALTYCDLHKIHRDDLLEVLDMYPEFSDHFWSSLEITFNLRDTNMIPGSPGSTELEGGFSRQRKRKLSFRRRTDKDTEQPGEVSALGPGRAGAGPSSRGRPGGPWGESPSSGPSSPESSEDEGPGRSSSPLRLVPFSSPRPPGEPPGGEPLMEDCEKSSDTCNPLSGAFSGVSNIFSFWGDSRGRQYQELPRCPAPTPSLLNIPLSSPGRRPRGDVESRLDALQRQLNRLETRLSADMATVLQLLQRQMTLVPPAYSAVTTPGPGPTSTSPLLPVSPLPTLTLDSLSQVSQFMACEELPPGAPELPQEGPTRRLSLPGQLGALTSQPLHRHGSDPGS
row,Compound,"hERG current change (%, negative = inhibition) at 1uM"
1,COc1ccc(S(=O)(=O)Nc2c(O)ccc3ccccc23)cc1OC,-2.21%
2,Cn1nccc1C(=O)NC(=S)Nc1sc2c(c1C#N)CCCCC2,15.4%
3,CCOC(=O)c1cnn2c(C(F)F)cc(C3CC3)nc12,10%
4,CCOC(=O)C1CCN(C(=O)CCc2c(C)nc3cc(-c4ccccc4)nn3c2C)CC1,-62%
5,Cn1c(O)c(C=NCCCNC2CCCCC2)c(=O)n(C)c1=O,7.59%
6,Cl.c1ccc2c(CN3CCCCC3)csc2c1,0.577%
7,N/C(=N\OC(=O)c1ccccc1F)c1ccc([N+](=O)[O-])cc1,11.4%
8,CCCOP(=O)(OCCC)C(Nc1ccc(C(=O)O)cc1)c1ccccc1 (stereo not shown),6.82%
9,Cc1ccccc1NC(=O)c1oc(=O)c2ccccc2c1-c1ccccc1,4.62%
10,O=C(CSC1=NCCN1)C1COc2ccccc2O1 (stereo not shown),-9.39%
11,OC(c1ccccc1)(c1ccccc1)c1ccn[nH]1,8.33%
12,Cc1c(NC(=O)CSC(=S)N2CCCC2)c(=O)n(-c2ccccc2)n1C,1.72%
13,S=c1[nH]nc(-c2ccc3ccccc3n2)n1-c1ccccc1Cl,13.2%
14,COc1ccc(OC)c(CN2CCN(C(=O)COc3cccc(C)c3)CC2)c1.O=C(O)C(=O)O,-10.9%
15,Cc1cc(Cl)ccc1N1C(=O)CC(SCCC(=O)O)C1=O (stereo not shown),9.04%
16,Cc1nn(Cc2cccc(C(=O)Nc3ccn(Cc4ccccc4F)n3)c2)c(C)c1[N+](=O)[O-],5.76%
17,Cc1noc(C)c1C(=O)OCC(=O)Nc1c(F)cccc1F,8.14%
18,O=C(CSc1nnc(Cn2cnc3ccccc32)o1)Nc1cccc2ccccc12,16.4%
19,Br.CCOCc1cn(CC(=O)c2ccc([N+](=O)[O-])cc2)c(C)nc1=N,-1.45%
20,CSC1=NCCN1C(=O)c1cccc(Br)c1,4.07%
21,CCOC(=O)CNC(=S)N(Cc1ccccc1)Cc1ccccc1F,1.56%
22,COc1ccc2ccc(C(C)(C(C)=O)C(=O)OC(C)C)cc2c1 (stereo not shown),8.67%
23,O=C(Nc1ccccc1)/C(=C/c1cccnc1)NC(=O)c1ccco1,-11.1%
24,Nc1c(C(=O)NCc2ccccc2)nnn1Cc1cccc(Cl)c1,10.7%
25,O=C(c1ccc(Cn2c(=S)[nH]c3cc4c(cc3c2=O)OCO4)cc1)N1CCN(c2ncccn2)CC1,5.57%
